PubChem BioAssay AID1347073 (National Center for Advancing Translational Sciences (NCATS), 2019)
The whole screen tested about 45,000 compounds, of which about 200 (0.44%) were called active. Roughly 7% stayed inconclusive and do not appear here. The call rests on the fitted dose curve; in most records, active means well fitted activation curve with a large enough effect; inconclusive means small, poorly fitted or top-dose-only effect; inactive means no such curve, though single readings can be large or run the other way. This is one part of the list.

Test: qHTS of TDP-43 Inhibitors: NCGC Sytravon Library Screen; further: 0% is about no effect; nearly all actives have a fitted effect of over 55% in size
Conditions: yeast TDP-43 toxicity rescue, BacTiter-Glo growth, 24 h; series mostly up to 46.1 µM; growth rescue (activation): at the top concentration
Summary of the method: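 TDP-43-expressing yeast, pregrown in raffinose, seeded at OD600 0.02 in galactose medium with compound for 24 hr at 30 deg C. Growth read by BacTiter-Glo luminescence, so rescue of toxicity appears as activation.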

| Structure (SMILES) | growth rescue (activation) |
| --- | --- |
| COc1ccc2cc(S(=O)(=O)Nc3ccccn3)ccc2c1 | inactive: 16% |
| CN(C)/C=C(\C#N)C(=O)N/N=C/c1ccccc1 | inactive: -2.17% |
| Nc1nc(-c2ccc3c(c2)CCCC3)c(CC(=O)O)s1 | inactive: 19.7% |
| Cc1cc(S(=O)(=O)N2CCOCC2)ccc1OCC(=O)NCc1ccco1 | inactive: -6.03% |
| COc1ccc(C(=O)CNc2ccccc2Br)cc1 | inactive: -12.5% |
| O=c1c2ccccc2nc(/C=C/c2cccnc2)n1Cc1ccccc1 | inactive: 21.5% |
| O=C(NC(Cc1ccccc1)C(=O)O)/C(=C\c1ccco1)NC(=O)c1ccccc1 (centres undefined) | inactive: -10.6% |
| CCOc1ccc(NCc2cccn2-c2nnc(N3CCC(C(=O)NCCc4ccc(OCC)c(OCC)c4)CC3)s2)cc1 | inactive: 12.1% |
| O=C(NCc1ccc2c(c1)OCO2)C(=S)N1CCOCC1 | inactive: 12.4% |
| COc1ccccc1S(=O)(=O)Nc1cccc(-c2nnc3n2CCCCC3)c1 | inactive: -6.69% |
| COc1ccc(C(C)C)cc1-c1cc(C(=O)NCc2cccc(C(F)(F)F)c2)[nH]n1 | inactive: 11.4% |
| C=CCN(c1ccccc1)S(=O)(=O)c1cccc(C(=O)Nc2nc3ccccc3[nH]2)c1 | inactive: 1.47% |
| CCc1ccc(NC(=O)C(=O)NCCN2CCN(S(=O)(=O)c3ccccc3)CC2)cc1 | inactive: 5.84% |
| CCC(=O)NC(=S)Nc1cccc(NC(=O)c2ccccc2)c1 | inactive: 15% |
| COc1ccc(OCC(O)CNCc2ccco2)cc1 (centres undefined) | inactive: 19.2% |
| CCOc1ccc(/C(O)=C2/C(=O)C(=O)N(c3ccccn3)C2c2ccc(Cl)cc2)c(C)c1 (centres undefined) | inactive: -38.8% |
| CCOC(=O)c1c(CS(=O)(=O)c2ccccc2)n(C)c2cc(Br)c(O)c(CN(C)C)c12 | inactive: 3.96% |
| COc1cc(C=Nc2cccc(C)c2)c(O)c([N+](=O)[O-])c1 | inactive: 19.2% |
| O=C(NCc1cccc(C(F)(F)F)c1)c1csc(COCCO)n1 | inactive: 18.5% |
| Cc1nc(C(F)(F)F)ccc1C(=O)N1CCC1(C)C(=O)NS(=O)(=O)c1ccc(Cl)cc1 (centres undefined) | inactive: 1.7% |
| COc1cc2oc(=O)c3c(c2cc1OCC(=O)c1c(C)n(C)c2ccccc12)CCCC3 | inactive: 14.8% |
| FC(F)Oc1ccc(-c2csc(=Nc3cccnc3)n2CC2CCCO2)cc1 (centres undefined) | inactive: 10.9% |
| COc1ccc(C(=O)CSc2nnc(-c3ccco3)o2)cc1 | inactive: 9.55% |
| O=C(CCCCl)Nc1nc(-c2ccc3c(c2)OCCO3)cs1 | inactive: 29.5% |
| COc1cc(NC(=O)CCCNC(=O)Cn2cnc3sc(C)c(C)c3c2=O)cc(OC)c1OC | inactive: -6.86% |
| Cc1ccc[n+](CC(=O)/C=C2\N(C)c3ccccc3C2(C)C)c1 | inactive: 13.8% |
| Cc1cccc(C)c1OCc1n[nH]c(=S)n1N | inactive: -3.93% |
| Cc1cc(NS(=O)(=O)c2ccc(NC(=O)c3cccc(OC(F)F)c3)cc2)nc(C)n1 | inactive: 7.53% |
| O=C(Cc1ccc(F)cc1)Nc1nc(-c2ccc(F)cc2)cs1 | inactive: 21.7% |
